# Results as given in PubChem BioAssay AID588549 (Broad Institute, 2011).
# Screen size: about 360,000 compounds; about 780 (0.22%) were called active. The shares of active, inactive and inconclusive entries below differ from those in the screen. Cut-off read from the data, not from the text of the source: active = inhibition above about 8.5% (passing the limit was not always enough); inconclusive = no clear call, values can overlap the other calls.
# Tested on: Mycobacterium tuberculosis FadD28 fatty-acid-AMP ligase
# Experiment: inhibitors of FadD28 bisubstrate probe binding, primary screen, biochemical, fluorescence polarization, single point (AID 588549)
# Conditions: at 12.5 µM, hits give high values
row,SMILES,inhibition
1,COc1ccc(NC(=O)CSc2n[nH]c(-c3ccco3)n2)cc1,inconclusive: 5.71%
2,CCOc1ccc(N=C2SC(C(=O)Nc3ccccc3C#N)C(N)=C2C(=O)Nc2ccc(Cl)cc2)cc1 (stereo unspecified),inconclusive: 8.11%
3,c1ccc(-c2nnc(-c3ccccn3)nc2NC2CCCCC2)cc1,inactive: -1.05%
4,CC(Oc1cc2oc(=O)c3c(c2cc1Cl)CCCC3)C(=O)NCc1ccccn1 (stereo unspecified),inactive: -3.7%
5,C/C(Cl)=C\Cn1c(O)c(N=O)c2ccccc21,inconclusive: 9.98%
6,CCc1c(C(=O)NNC(=S)Nc2ccc(S(=O)(=O)Nc3ncccn3)cc2)csc1C,active: 9.62%
7,Cc1ccc(C(=O)COC(=O)c2cccc(NC(=O)c3ccc([N+](=O)[O-])cc3[N+](=O)[O-])c2)cc1,inconclusive: 11.2%
8,CC(=O)Oc1ccc(C2C3=C(CC(C)(C)CC3=O)Nc3cc4c(cc32)OCCO4)cc1 (stereo unspecified),inactive: -2.99%
9,COc1cccc(-n2c(SCc3cc(=O)oc4cc(O)c(O)cc34)nc3ccccc3c2=O)c1,inconclusive: 9.14%
10,CCOC(=O)C1=C(C)NC(C)=C(C(=O)OCC)C1c1sccc1C,inconclusive: 12.3%
11,CCc1cccc2c(C(=O)CN3C(=O)C(=O)N(C4CCCC4)C3=O)c[nH]c12,active: 14%
12,COc1ccccc1N1C(=O)C2C(C(=O)c3ccccc3)=NN(c3ccc(C)cc3)C2C1=O (stereo unspecified),inactive: -1.1%
13,O=C(NNc1ccc(C2CCCCC2)cc1)C(O)(c1ccccc1)c1cccs1 (stereo unspecified),inconclusive: 4.6%
14,O=C1ON=C(c2ccc([N+](=O)[O-])cc2)/C1=C/c1ccccc1O,inconclusive: 6.55%
15,CCNS(=O)(=O)c1cc(OC)c(Cl)cc1OC,inconclusive: 5.94%
16,COc1c(C)cc(C(=O)C2CCCN(C3CCOCC3)C2)cc1C (stereo unspecified),inactive: -1.16%
17,Cc1cccc(NC(=O)CN2C(=O)N/C(=C/c3ccc(-c4cccc(C(=O)O)c4C)o3)C2=O)c1,inconclusive: 6.88%
18,CC1(C(=O)NNC(=O)c2ccc(=O)oc2)CC1Br (stereo unspecified),inconclusive: 8.15%
19,CC(C)(C)NC(=O)CN1C(=O)c2cccc3cccc1c23,inactive: -2.66%
20,C#CCOCCOCCOCCNc1nc(N2CCN(C(=O)CCCCCCCCCCNC(=O)[C@@H](CCSC)n3cc(CCO)nn3)CC2)nc(N2CCN(C(=O)CCCCCCCCCCNC(=O)[C@H](CCCN=C(N)N)n3cc(C[C@@H](C)CC)nn3)CC2)n1,active: 11.5%
21,CCCCNC(=O)C1(C)CCCCN1C(=O)c1c(C)noc1C (stereo unspecified),inactive: -4.57%

row,SMILES,inhibition
1,COc1ccc(NS(=O)(=O)c2cc(NC(=O)COc3ccccc3)ccc2N2CCOCC2)cc1,inconclusive: 10.5%
2,COCCNC(=O)C1CC(=O)N(c2ccc(OC)cc2)C1c1ccc(OC)cc1 (stereo unspecified),inconclusive: 4.35%
3,Cc1cccc(NC(=O)CSc2nnc(-c3ccco3)c(-c3ccco3)n2)c1C,inconclusive: 6.75%
4,O=C(O)c1ccc(N/N=C/c2cn(-c3ccccc3)nc2-c2cccs2)cc1,active: 23.7%
5,CCC(=O)Nc1cccc(-c2nc3ccc(C)cc3o2)c1,inactive: 0.143%
6,O=C(CSc1nnc(CNC(=O)C23CC4CC(CC(C4)C2)C3)n1-c1ccccc1)Nc1ccc(F)cc1,inconclusive: 3.01%
7,Cc1c(C)c2ccc(OC(C)C(=O)NC3CCN(Cc4ccccc4)CC3)cc2oc1=O (stereo unspecified),inactive: -3.32%
8,Cn1c(=S)n(CCC(=O)O)c2ccccc21,inactive: -3.32%
9,CCCSc1ncc(Cl)c(C(=O)Nc2ccc(S(=O)(=O)N3CC(C)OC(C)C3)cc2)n1 (stereo unspecified),inconclusive: 3.95%
10,C/C(=N\NC(=O)c1ccccc1O)c1c(O)n(Cc2ccccc2)c(=O)[nH]c1=O,inconclusive: 5.52%
11,CC(OC(=O)/C(C#N)=C/c1ccc(N(C)C)cc1)C(=O)N(C)Cc1ccccc1 (stereo unspecified),inconclusive: 10.1%
12,C[C@H]1c2cccc(O)c2C(O)=C2C(=O)[C@]3(O)C(O)=C(C(N)=O)C(=O)[C@@H](N(C)C)C3[C@@H](O)C21 (stereo partly specified),inactive: -1.51%
13,CN1CC(C(=O)c2ccc(Cl)cc2)C(c2ccc(N(C)C)cc2)C1 (stereo unspecified),inconclusive: 6.95%
14,CC1CCN(C(=O)c2ccc(CNS(=O)(=O)c3ccc(C(C)(C)C)cc3)cc2)CC1,inactive: -1.18%
15,COc1cc2cc(C(N)=O)c(N)nc2cc1OC,inconclusive: 4.36%
16,CC(C)C(NC(=O)c1ccc2c(c1)OCO2)C(=O)N/N=C/c1cccs1 (stereo unspecified),inconclusive: 4.35%
17,CN1CCN(C2=C(Cl)C(=O)c3ccccc3C2=O)CC1,inconclusive: 6.89%
18,COc1cccc2cc(C(=O)C3=C(O)C(=O)N(CCN(C)C)C3c3ccc(Cl)cc3)oc12 (stereo unspecified),inactive: -2.22%
19,CCOc1ccc(C(=O)Nc2cc(-c3nc4ccccc4[nH]3)ccc2C)cc1[N+](=O)[O-],inconclusive: 4.99%
20,COc1cc(/C=C2\SC(=S)N(CC(=O)Nc3cccnc3)C2=O)cc(OC)c1OC,inconclusive: 12%
21,CC(C)S(=O)(=O)c1nsc2nc(=O)c(/C=C3\C=Nc4ccccc43)c(N)n12,active: 30%

row,SMILES,inhibition
1,Cc1[nH]n(-c2cccc3ccccc23)c(=O)c1/C=N/c1sc2c(c1C#N)CCC2,inconclusive: 8.66%
2,CCN=C1NN=C(c2cc(C)n(CCc3ccccc3)c2C)CS1,inactive: -2.14%
3,COc1cc(/C=N/NC(=O)c2ccc(NC(=O)C3CCCCC3)cc2)ccc1O,inactive: -0.629%
4,O=C(O)C(c1ccccc1)N1C(=O)/C(=C\c2ccc(-c3ccc(Br)cc3)o2)SC1=S (stereo unspecified),active: 27.5%
5,C#CCOCCOCCOCCNc1nc(N2CCN(C(=O)CCCCCCCCCCNC(=O)[C@H](CO)n3cc(CCCSC)nn3)CC2)nc(N2CCN(C(=O)CCCCCCCCCCNC(=O)[C@H](CCCN=C(N)N)n3cc(C[C@@H](C)CC)nn3)CC2)n1,inconclusive: 9.06%
6,CN(C(=O)c1ccc(NC(=O)Cc2cccc(NC(=O)C3CCCN(C(=O)c4ccccc4)C3)c2)cc1)C1CC1 (stereo unspecified),inconclusive: 4.18%
7,Cc1ccc(C)c(S(=O)(=O)N2CCN(C(=O)c3n[nH]c(=O)c4ccccc34)CC2)c1,inactive: -3.94%
8,Cc1ccc(C)c(C(=O)CN2C(=O)C(=O)N(C3CCCC3)C2=O)c1,inconclusive: 7.36%
9,COc1cc(/C=C(\C#N)c2nc3ccc(C)cc3[nH]2)cc([N+](=O)[O-])c1O,active: 29.9%
10,O=S(=O)(Nc1nc2ccccc2nc1Nc1cccc(S(=O)(=O)N2CCCCC2)c1)c1ccccc1,inconclusive: 7.87%
11,S=c1nc(-c2ccco2)[nH][nH]1,inconclusive: 5.97%
12,O=C(N/N=C/c1ccc([N+](=O)[O-])o1)c1ccc(NS(=O)(=O)c2cccs2)cc1,inconclusive: 7.74%
13,O=C(COC(=O)c1ccc(NC(=O)C2CC=CCC2C(=O)O)cc1)c1ccccc1 (stereo unspecified),inconclusive: 8.68%
14,O=c1c2ccccc2c(-c2ccc(O)cc2)nn1-c1cccc(C(F)(F)F)c1,inconclusive: 6.14%
15,CCOC(OCC)c1nc(N)[nH]c(=O)c1CCCCc1ccccc1,inconclusive: 3.01%
16,CC(C)CCNc1nc(N2CCCC2)c2c(c1C#N)CCN(C)C2,inconclusive: 7.01%
17,CCc1ccccc1Nc1nc(-c2cccnc2)cs1,inconclusive: 4.25%
18,CC(=O)C1=C(C)NC(SCC(=O)c2ccc(F)cc2)=C(C#N)C1c1ccco1 (stereo unspecified),inconclusive: 113%
19,COc1ccccc1Nc1ccc2c(O)cc(S(=O)(=O)O)cc2c1,active: 69.7%
20,N#CC(=C=[N-])C1=C(C#N)C(c2ccccc2F)C([n+]2ccccc2)C(O)(C2CC2)N1 (stereo unspecified),inconclusive: 7.17%
21,CC(C)n1cc(/C=N/Nc2ccc(C(=O)O)cc2)c2ccccc21,active: 21.6%

row,SMILES,inhibition
1,CCCCC(=O)N(C)c1c(C)nc2ccc(C(=O)Nc3cccc(OC)c3)cn12,inactive: -2%
2,CCn1c(CSc2nccn2C)nc2cc(C(=O)O)ccc21,inconclusive: 7.68%
3,C/C(=N\NC(=O)c1cc(-c2cccnc2)nc2ccccc12)c1ccc(O)cc1O,inactive: -0.0495%
4,O=C(COC(=O)c1ccc(O)cc1O)Nc1cccc2ccccc12,active: 12%
5,CCn1c(SCC(=O)Nc2nc(-c3ccc(C)cc3)cs2)nnc1-c1ccccc1O,inactive: -5.09%
6,O=c1[nH]c(=S)[nH]c(O)c1N=Nc1ccc(S(=O)(=O)N2CCc3ccccc32)cc1,inconclusive: 5.49%
7,N#CC1=C(N)Oc2n[nH]c(-c3ccc(F)cc3)c2C1c1ccncc1 (stereo unspecified),inactive: -2.36%
8,CCOC(=O)c1ccc(NS(=O)(=O)c2ccc3c(c2)NC(=O)CCS3)cc1,inconclusive: 7.23%
9,NS(=O)(=O)c1ccc(Nc2nc(-c3ccc(O)cc3)cs2)cc1,active: 10.5%
10,Cc1nn(Cc2ccc(F)cc2)c2sc(C(=O)Nc3ccccc3N3CCOCC3)cc12,inconclusive: 7.15%
11,Cc1ccc(C(=O)NN2C(=O)/C(=C/c3cccn3C)SC2=S)cc1,active: 12.8%
12,Cc1ccc(NC(=S)N(C)Cc2cn(C)c3ccccc23)cc1,active: 16.5%
13,Oc1ccc(Nc2nc(Cl)nc(NCc3ccco3)n2)cc1,inactive: -0.7%
14,COc1ccccc1CNC(=O)C1CCCN(S(=O)(=O)c2cnc[nH]2)C1 (stereo unspecified),inactive: -0.788%
15,c1ccc(-c2c(-c3ccccc3)n(Cc3ccco3)c3ncnc(NCCCn4ccnc4)c23)cc1,inactive: -4.63%
16,O=C(Cc1c(F)cccc1Cl)NC1CCN(Cc2ccccc2)CC1,inconclusive: 3.56%
17,COc1ccc(CN2CCNC(=O)C2CC(=O)N(C)Cc2ccncn2)c(OC)c1 (stereo unspecified),inactive: -0.776%
18,CC(=O)Oc1cc2c3c(c1)/C(=C1/SC(=S)NC1=O)C(=O)N3C(C)(C)C=C2C,inconclusive: 9.02%
